# Reference: PMC4336329 (PLoS ONE, 2015)
# Among all 310,000 compounds or so, about 14,000 (4.5%) showed an effect of 50% or more. The effect is printed as a negative number. Some of the results follow.
# Target: human ether-à-go-go-related gene (hERG) potassium channel (human, UniProt Q12809)
# Test: primary screen, population patch clamp on CHO cells stably expressing hERG
# 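Also: peak tail current of the secondary pulse compared with the same well before compound.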
# human ether-à-go-go-related gene (hERG) potassium channel, sequence (Q12809 whole entry, looked up): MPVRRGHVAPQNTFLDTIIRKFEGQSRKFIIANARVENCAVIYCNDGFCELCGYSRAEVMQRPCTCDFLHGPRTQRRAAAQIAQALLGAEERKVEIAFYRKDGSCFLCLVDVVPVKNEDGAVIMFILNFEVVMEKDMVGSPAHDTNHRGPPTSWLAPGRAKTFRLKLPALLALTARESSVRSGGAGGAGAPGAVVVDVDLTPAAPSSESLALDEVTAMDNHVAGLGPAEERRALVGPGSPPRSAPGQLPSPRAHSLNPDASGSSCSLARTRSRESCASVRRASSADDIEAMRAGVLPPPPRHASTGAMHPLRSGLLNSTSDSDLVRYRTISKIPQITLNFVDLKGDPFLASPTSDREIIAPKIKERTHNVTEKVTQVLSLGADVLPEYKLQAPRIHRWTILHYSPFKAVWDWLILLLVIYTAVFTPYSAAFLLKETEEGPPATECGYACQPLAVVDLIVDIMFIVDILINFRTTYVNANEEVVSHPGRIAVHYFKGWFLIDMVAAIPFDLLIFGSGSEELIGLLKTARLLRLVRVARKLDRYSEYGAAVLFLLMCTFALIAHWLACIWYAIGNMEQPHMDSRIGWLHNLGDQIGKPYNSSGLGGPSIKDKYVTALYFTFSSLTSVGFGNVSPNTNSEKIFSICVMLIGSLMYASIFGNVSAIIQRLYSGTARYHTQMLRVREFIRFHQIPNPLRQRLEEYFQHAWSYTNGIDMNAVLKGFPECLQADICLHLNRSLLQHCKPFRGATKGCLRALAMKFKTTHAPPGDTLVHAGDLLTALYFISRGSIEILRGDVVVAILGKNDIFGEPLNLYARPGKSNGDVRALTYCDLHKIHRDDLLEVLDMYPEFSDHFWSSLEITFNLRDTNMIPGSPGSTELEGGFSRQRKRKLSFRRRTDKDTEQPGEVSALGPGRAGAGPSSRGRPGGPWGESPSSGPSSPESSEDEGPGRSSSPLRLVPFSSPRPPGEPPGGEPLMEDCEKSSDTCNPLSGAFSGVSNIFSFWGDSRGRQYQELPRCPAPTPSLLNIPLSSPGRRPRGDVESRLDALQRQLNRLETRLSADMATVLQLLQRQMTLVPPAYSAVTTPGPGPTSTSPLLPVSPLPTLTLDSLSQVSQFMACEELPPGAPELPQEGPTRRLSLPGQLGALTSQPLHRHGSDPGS
row,Structure (SMILES),"hERG current change (%, negative = inhibition) at 10uM [%]"
1,Oc1ccccc1N1CCN(c2nc(-c3cccs3)nc3ccccc23)CC1,5.52
2,Cc1cc2ncc(C(N)=O)cn2n1,10.8
3,N#Cc1ccccc1CSc1nc(O)cc(=O)[nH]1,11.7
4,COc1ccc(-c2nc(CS(=O)(=O)CC(=O)NC3CCCCC3C)c(C)o2)cc1 (stereo not shown),-15
5,CSc1nsc(SCC(=O)Nc2cccc(C(=O)O)c2)n1,-0.81
6,CN(C(=O)C(Cl)Cl)c1ccc(OC(=O)c2ccco2)cc1,10.1
7,COc1ccc(/C=N/NC(=O)c2cc3cc(OC)c(OC)cc3[nH]2)cc1,-20.7
8,Cc1ccc(NC(=O)Nc2ccon2)cc1Cl,16.8
9,Oc1c(Br)cc(/C=N/n2c(-c3ccccc3)n[nH]c2=S)c(O)c1Br,10.4
10,CC(NC(=O)c1cccc(Cn2cc([N+](=O)[O-])cn2)c1)c1ccc(C(C)(C)C)cc1 (stereo not shown),-0.951
11,CCOC(=O)c1c(CC(C)C)csc1NC=O,7.52
12,CCCCCCCNC(=O)CC(NS(=O)(=O)c1ccc(NC(C)=O)cc1)C(C)C (stereo not shown),3.19
13,Cc1ccc(C)c(C(=O)COC(=O)c2cc([N+](=O)[O-])ccc2N2CCOCC2)c1,-22.5
14,CCC(C)NC(=O)/C=C1\Sc2ccccc2NC1=O (stereo not shown),-1.99
15,O=C(N/N=C\c1cccc(OC(=O)c2ccco2)c1)c1ccc2c(c1)OCO2,-8.37
16,Cn1c(=O)n(CC(=O)[O-])c(=O)c2c1nc1n2CCS1,16.9
17,Cc1cccc(NC(=O)C2CCCN(C(=O)Nc3ccc(F)cc3)C2)c1 (stereo not shown),-8.63
18,Cc1cc(-c2ccccc2)n(-c2ccc(C(=O)NC(C)C)cc2)n1,20.7
19,CCOC(=O)c1cnc2ccc(OCC)cc2c1N1CCN(c2ccccc2OC)CC1,-5.78
20,CCC(N1CCOC1=O)S(=O)(=O)c1ccc(C)cc1 (stereo not shown),20.9
21,COc1ccc(NC(=S)Nc2ccc3nsnc3c2)cc1,9.35
22,O=C(Nc1cccnc1)c1cc(Br)c(Br)s1,1.91
23,CCCCCOc1ccc2oc(=O)c3c(c2c1)CCCN3C(=O)CN1CCCC(C(=O)OCC)C1 (stereo not shown),-0.3
24,CCOc1cc(C(C(=O)NCC2CCCO2)N(C(=O)Cn2nnc3ccccc32)c2ccc(OC)c(OC)c2)ccc1O (stereo not shown),10.5
25,COC(=O)[C@H](Cc1ccccc1)NC(=O)N1CCN(c2ccc(F)cc2)CC1,-12
